According to PubChem BioAssay AID602293 (National Center for Advancing Translational Sciences (NCATS), 2012):
Among all 1,300 compounds or so, about 30 (2%) were called active. About 10% were inconclusive and are not listed. Calls come from the whole dose curve; as a rule, active = well fitted inhibition curve with a large enough effect; inconclusive = small, poorly fitted or top-dose-only effect; inactive = flat fitted curve, though single readings scatter. The list shows a part of the results.

Assay: qHTS for antagonists of the Thyroid Stimulation Hormone Receptor: Hit Validation in HTRF Activity in a Luteinizing Hormone Receptor Cell Line
Settings: LHR-expressing cell line, cAMP HTRF, antagonist mode; series mostly up to 58 µM; activity change, negative = inhibition: at the top concentration
Source text: The thyroid-stimulating hormone receptor (TSHR) is a member of the 7 trans-membrane-spanning receptor (7TMR) family of cell surface receptors. TSHR-mediated hyperthyroidism is important in thyroid pathology. The development of small molecule antagonists of TSHR may lead to therapeutic approaches for TSHR-mediated hyperthyroidism caused by constitutively activating mutations or stimulating auto-antibodies associated with Graves' disease. Graves' disease is the leading cause of hyperthyroidism and is caused by autoantibodies that stimulate TSHR (TsAbs) causing thyroid growth and unregulated overproduction of thyroid hormones and existing treatments have liabilities (agranulocytosis). In addition, TSHRs are known to be expressed in multiple extrathyroidal tissues including bone, brain, kidney, testis, fat and cells of the immune system but the role of the TSHR in these tissues is not clear. Therefore, TSHR antagonists/inverse agonists could be used as probes of extrathyroidal TSHR function. Finally, TSHR inverse agonists, which are a subclass of antagonists that inhibit agonist-independent (or basal or constitutive) TSHR signaling, could be used to inhibit TSH-independent signaling in patients with recurrent or metastatic thyroid cancer who are receiving thyroid hormone to suppress TSH.
In collaboration between scientist from the NCGC and the NIDDK, a miniaturized HTRF high-throughput screen was developed. It's a cell based assay, where an anti cAMP antibody contains a fluorescent cryptate tag (excitation 337 nm; emission 620 nm) and the acceptor is cAMP-d2 (excitation 620 nm; emission 665 nm). When antibody and cAMP-d2 interact and are excited by a 337 nm light, a FRET occurs resulting in emission at 665 nm. The assay is competition between cAMP-d2 and cAMP (from the cell lysate). The homogeneous protocol allows for one step dispense after stimulation that is automation friendly. In order to confirm specificity of the compounds to the TSHR, a confirmatory assay was conducted on a similar family member, the Luteinizing Hormone (LH) receptor, transfected into a HEK 293 cell line, using an orthogonal detection technology to measure cAMP stimulation: antibody-based Homogeneous Time Resolved Fluorescence (HTRF).
NIH Chemical Genomics Center [NCGC]
NIH Molecular Libraries Probe Centers Network [MLPCN]
Assay Provider: Marvin Gershengorn, NIDDK
Homogeneous Time Resolved Fluorescence (HTRF) cAMP Assay. HEK 293 cells stably transfected with a vector containing the LH receptor and maintained under hygromycin selection were obtained from the laboratory of Dr. Marvin Gershengorn. Compounds were assayed using a HTRF cAMP detection kit (Cisbio) on the LH receptor transfected cell line. Briefly, 750 cells were plated in 2.5 ul/well of complete media (DMEM containing 10 % FCS, and 100 uM RO 20-1724) in 1536 well solid bottom white plates and 23 nl/well compound in DMSO solution or controls was added. Following 30 minute incubation at room temperature, 2.5 ul/well of labeled d2 cAMP and 2.5 ul/well of anti-cAMP antibody (both diluted 1:20 in lysis buffer) were added to each well using a flying reagent dispenser (Aurora Discovery, San Diego) . Plates were measured using the Envision plate reader (PerkinElmer, Boston, MA) with excitation at 330 nm and emissions of 615 nm and 660 nm.
% is set by controls: 0 for no effect and ±100 for the full control effect; potency is the fitted concentration of half-maximal effect.

Row | Structure (SMILES) | activity change, negative = inhibition | Potency
1 | Nc1ccc(C2(c3ccc(N)cc3)c3ccccc3-c3ccccc32)cc1 | inactive: 0.701% | 
2 | C[C@]12CC[C@H]3[C@@H](CC[C@]4(O)C[C@@H](O)CC[C@]34C=O)[C@@]1(O)CC[C@@H]2C1=CC(=O)OC1 | inactive: -4.53% | 
3 | COC(=O)C1=C(c2ccc(OC(F)(F)F)cc2)C[C@@H]2CC[C@H]1N2C(=O)N1CCC(C)CC1 | inactive: -4.89% | 
4 | CN(C)CC1Oc2ccccc2OC1(O)c1ccccc1 (stereo not drawn) | inactive: -2.31% | 
5 | COc1ccc(-[n+]2c(-c3ccccc3)cc(-c3ccc(C)cc3)cc2-c2ccccc2)cc1 | inactive: -4.98% | 
6 | CCN(CC)S(=O)(=O)c1ccc(NN=C(C#N)C#N)cc1 | inactive: -2.68% | 
7 | Cc1ccc(-n2c(C)nc3ccccc3c2=O)c(C)c1 | inactive: 2.57% | 
8 | Oc1ccc(-[n+]2c(-c3ccccc3)cc(-c3ccccc3)cc2-c2ccccc2)cc1 |  | active: 39.8 µM
9 | COC(=O)C1=C(c2ccc(-c3ccccc3)c(F)c2)C[C@@H]2CC[C@H]1N2C(=O)NCc1ccc(F)cc1 | inactive: -3.03% | 
10 | C[C@]12CC[C@H](O)C[C@H]1CC[C@@H]1C2CC[C@]2(C)[C@@H](C3=CC(=O)OC3)[C@@H](O)C[C@]12O (stereo partly drawn) | inactive: -4.73% | 
11 | COC(=O)C1=C(c2ccc(-c3ccccc3)c(F)c2)C[C@@H]2CC[C@H]1N2C(=O)NCCc1ccccc1 | inactive: -8.33% | 
12 | CC12CCC3C(CC=C4CC5(CCC43C)OCCO5)C1CCC2=O (stereo not drawn) | inactive: 1.05% | 
13 | COC(=O)C1=C(c2ccc(OCc3ccccc3)cc2)C[C@@H]2CC[C@H]1N2C(=O)NCc1cccc(OC)c1 | inactive: -0.797% | 
14 | Cc1nc2ccccc2c(=O)n1-c1cccc(C(F)(F)F)c1 | inactive: 1.61% | 
15 | CNc1ccc2oc(C[C@H]3O[C@@]4(CC[C@H]3C)O[C@H]([C@H](C)C(=O)c3ccc[nH]3)[C@H](C)C[C@H]4C)nc2c1C(=O)O |  | inactive
16 | COC(=O)C1=C(c2ccc(-c3ccccc3)c(F)c2)C[C@@H]2CC[C@H]1N2C(=O)N1CCOCC1 | inactive: -5.52% | 
17 | COC(=O)C1=C(c2ccc(-c3ccccc3)c(F)c2)C[C@@H]2CC[C@H]1N2C(=O)NCCCOC(C)C | inactive: -2.75% | 

Row | Structure (SMILES) | activity change, negative = inhibition | Potency
18 | C[C@H]1O[C@@H](OC2CC[C@]3(C=O)[C@H]4CC[C@]5(C)[C@@H](C6=CC(=O)OC6)CC[C@]5(O)[C@@H]4CC[C@]3(O)C2)CC2OC(C)(C)OC21 (stereo partly drawn) | inactive: -0.216% | 
19 | COC(=O)C1=C(c2ccc(-c3ccccc3)c(F)c2)C[C@@H]2CC[C@H]1N2C(=O)NCC1CC1 | inactive: -6.08% | 
20 | O=C(C1CCN(c2nc3ccc(Br)cc3s2)CC1)N1CCC2(CC1)OCCO2 | inactive: -2.84% | 
21 | CCCCN=C[C@]12CCC(O)CC1(O)CCC1[C@@H]2CC[C@]2(C)[C@H](C3C=CC(=O)O3)CCC12O (stereo partly drawn) | inactive: -2.56% | 
22 | O=C(Nc1ccc2ccccc2c1)c1nn(C23CC4CC(CC(C4)C2)C3)cc1Br | inactive: -1.5% | 
23 | Cc1ccc(-c2cc(-c3ccccc3)cc(-c3ccccc3)[n+]2-c2ccccc2)cc1 |  | active: 42.6 µM
24 | COc1cc(N2C(=O)CC(=O)NC2=O)cc(OC)c1OC | inactive: 1.86% | 
25 | N#CC(C#N)=NNc1ccc(-n2ccc(C(F)(F)F)n2)cc1 | inactive: -4.9% | 
26 | COc1cc(C(C)=O)ccc1OC(=O)N(C)c1ccccc1 | inactive: 3.33% | 
27 | Cc1ccccc1-c1nc(CS(=O)CC(=O)N2CCC3(CC2)OCCO3)c(C)o1 (stereo not drawn) | inactive: 0.537% | 
28 | COC(=O)C1=C(c2ccc(-c3ccccc3)c(F)c2)C[C@@H]2CC[C@H]1N2C(=O)NC(C)C | inactive: -0.923% | 
29 | COC(=O)C1=C(c2ccc(-c3ccccc3)c(F)c2)C[C@@H]2CC[C@H]1N2C(=O)NCc1ccco1 | inactive: -4.99% | 
30 | C[C@]12CC[C@H](O)C[C@H]1CC[C@@H]1[C@@H]2CC[C@]2(C)[C@@H](C3=CC(=O)OC3)CC[C@]12O | inactive: -5.83% | 
31 | C[C@]12CCC3C(CCC4=CC(O)CC[C@@]43/C=N/O)C1(O)CCC2C1=CC(=O)OC1 (stereo partly drawn) | inactive: -3.96% | 
32 | COc1cc2c(cc1/C=C/[N+](=O)[O-])OCO2 | inactive: -4.92% | 
33 | CC(=O)c1ccc2c(c1)C1C(Cl)C(Sc3ccccc3[N+](=O)[O-])CC1C(C(=O)O)N2 (stereo not drawn) | inactive: -4.58% | 
